Earlier results, collected in US20240156960A1 (priority 2020, published 2024).

B1: C004 (antibody, listed as Homo sapiens, V domains shown)
VH: [about 100 residues cut from this listing]PASRGYSGYDHGYYYYMDVWGKGTTVTVSS
VL: AIRMTQSPSSLSASVGDRVTITCQASQDISNYLNWYQQKPGKAPKLLIYDASNLETGVPSRFSGSGSGTDFTFTISSLQPEDIATYYCQQYDNLPITFGQGTRLEIK
B2: C008 (antibody, listed as Homo sapiens, V domains shown)
VH: EVQLVESGGGVVQPGRSLRLSCAASGFTFSSYGMHWVRQAPGKGLEWVTVISYDGRNKYYADSVKGRFTISRDNSKNTLYLQMNSLRAEDTAVYYCAREFGDPEWYFDYWGQGTLVTVSS
VL: [about 100 residues cut from this listing]TFGQGTKVEIK
B3: C009 (antibody, listed as Homo sapiens, V domains shown)
VH: [about 100 residues cut from this listing]DSPFSALGASNDYWGQGTLVTVSS
VL: QSALTQPPSASGSPGQSVTISCTGTSSDVGGYNYVSWYQQHPGKAPKLMIYEVSKRPSGVPDRFSGSKSGNTASLTVSGLQAEDEAEYYCSSDAGSNNVVFGGGTKLTVL
B4: C010 (antibody, listed as Homo sapiens, V domains shown)
VH: EVQLVESGGGVVQPGRSLRLSCAASGFTFSSYAMHWVRQAPAKGLEWVAVILYDGSGKYYADSVKGRFTISRDNSKNTLYLQMNSLRAEDTAVYYCARDGIVDTALVTWFDYWGQGTLVTVSS
VL: [about 100 residues cut from this listing]PWTFGQGTKVEIK
B5: 8D9 (antibody, listed as Homo sapiens, V domains shown)
VH: EVQLLESGGGLVQPGGSLRLSCTASGFTFSSYWMSWVRQAPGKGLEWVANIQQDGSEKYYVDSVKGRFTISRDNAKNSLYLQMNSLRAEDTAVYYCARPTIGYSYGSDYWGQGTTVTVSS
VL: [about 100 residues cut from this listing]

Experiments:
SARS-CoV2 = conditions: Protein + Epitope: S; literature source
[1] = system: coronavirus named in the cell (SARS-CoV2, SARS-CoV1), S protein

Molecule	Binds to (SARS-CoV2)	Not Neutralising Vs (SARS-CoV1)	Binds to [1]
B1	SARS-CoV2	SARS-CoV1	
B2	SARS-CoV2	SARS-CoV1	
B3	SARS-CoV2	SARS-CoV1	
B4	SARS-CoV2	SARS-CoV1,	
B5			SARS-CoV2
